Reference: PubChem BioAssay AID1963576 (National Center for Advancing Translational Sciences (NCATS), 2024)
Screen size: about 46,000 compounds; about 60 (0.1%) were called active. Roughly 3% stayed inconclusive and do not appear here. Calls come from the whole dose curve; as a rule, active = well fitted inhibition curve with a large enough effect; inconclusive = small, poorly fitted or top-dose-only effect; inactive = no such curve, though single readings can be large or run the other way. Some of the results follow.

Test: Primary qHTS assay for Inhibitors of ovarian cancer metastasis using an organotypic tumor microenvironment (TME) model.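 For activity change, negative = inhibition: plate controls were DMSO wells for no effect and tomatine positive control wells for full effect.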 Note: nearly all actives have a fitted effect of over 65% in size.
Conditions: SKOV3ip1-GFP adhesion/invasion on 3D omental model, fluorescence; series mostly up to 45.8 µM; activity change, negative = inhibition: at the top concentration
How it was run: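 Adhesion/invasion was scored as fixed GFP-labeled SKOV3ip1 cell counts (488/509 nm), normalized to DMSO and tomatine controls. Cancer cells in serum-free medium, with four compound doses (0.36-46 umol/L), sat 2 hr at RT then 16 hr at 37 C on a 48 hr fibroblast/mesothelial/ECM culture.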

Activity change, negative = inhibition, inactive:
O=C(c1ccc2c(c1)CCCC2)N1CCN(c2nc3ccc(F)cc3s2)CC1 8.09%
CCOc1ccc(CNC(=O)c2cc3c(s2)-c2ccccc2OC3)cc1 -8.3%
COc1ccc(S(=O)(=O)c2cc3cc(OC)ccc3oc2=O)cc1 3.76%
COc1ccc(C(=O)c2oc3ccccc3c2NC(=O)COc2ccc(C)cc2)cc1 3.62%
CC(NC(=O)c1ccc(Cn2c(=O)c3cccn3c3cccnc32)cc1)c1ccccc1 (stereo unspecified) -7.55%
Cc1ccc(NC(=O)Cn2c(=O)n(CCCS(=O)(=O)C3CCCCC3)c(=O)c3ccccc32)cc1F 26.2%
CCN1CCN(c2c(S(=O)(=O)c3ccc(Cl)cc3)cnc3ccccc23)CC1 0.898%
CCc1ccccc1NC(=O)N1CCc2cc(OC)c(OC)cc2C1CC(=O)OC (stereo unspecified) -25.3%
CCc1ccccc1NC(=O)CN1C(=O)COc2ccc(S(=O)(=O)Nc3ccccc3)cc21 28.3%
C#CCN(C)CC1=Cc2ccccc2Oc2ccccc21 -15.2%
COc1cc(C2c3c(-c4c(C)cc(C)cc4O)n[nH]c3C(=O)N2CCCOC(C)C)cc(OC)c1OC (stereo unspecified) -5.41%
Cc1cccc(N2CCN(C(=O)CCC(=O)NNc3nc4ccccc4c4nc(C)nn34)CC2C)c1 (stereo unspecified) -8.98%
CCC1CN(S(=O)(=O)c2ccc3c(c2)NC(=O)CC(=O)N3)c2cc(Cl)ccc2O1 (stereo unspecified) 0.292%
COc1ccc(S(=O)(=O)n2nc(-c3ccco3)nc2NCc2ccc(OC)c(OC)c2)cc1 13%
COc1ccccc1Cc1nc2ccccc2nc1SCC(=O)Nc1ccccc1C(F)(F)F -39.2%
COc1ccc(-c2nc3c(C#N)c[nH]n3c2NC2CCCC2)cc1 1.18%
Cc1ccc(N2CC(c3nnc(Cc4ccccc4Cl)o3)CC2=O)cc1 (stereo unspecified) 2.12%
CCc1nnc2c(NCc3cccc(OC)c3)nc3ccccc3n12 17.4%
COc1cccc(-c2[nH]c3c(c2-c2c(-n4cccc4)n(C)c(=O)[nH]c2=O)c(=O)[nH]c(=O)n3C)c1 7.96%
CN(C)c1ccc(CNC(=O)CCn2c(=O)c3cccn3c3ccc(F)cc32)cc1 -7.43%
COCCOC(=O)C1=C(C)N=C2SCCC(=O)N2C1c1ccc(OCc2ccccc2)c(OC)c1 (stereo unspecified) 10.8%
COCCCNc1nc2c(c(=O)n(C)c(=O)n2C)n1Cc1ccccc1 -7.13%
COc1ccccc1N1CCN(c2cc(C)nc3c(-c4ccc(Cl)cc4)c(C)nn23)CC1 -11.2%
O=C(NCc1ccc2c(c1)CCN2C(=O)c1ccccc1)c1ccc(Br)o1 -6.16%
Cn1c(=O)c2c(ncn2C)n(C)c1=O -6.79%
CCN(CC)S(=O)(=O)c1ccc2c(c1)c(=O)c(C(=O)NCc1ccccc1OC)cn2C 39.3%
Cc1ccc(C(=O)N2CCc3cc(CNC(=O)c4ccnn4C)ccc32)cc1 -12.8%
CCOc1ccccc1C(=O)Nc1nnc(COC)s1 -0.656%
CCOc1ccc(C(=O)N2CCC(c3ccncc3)CC2)cc1 1.39%
CC[C@@H]1C(=O)N(C)c2cnc(Nc3ccc(C(=O)NC4CCN(C)CC4)cc3OC)nc2N1C1CCCC1 -17.3%
CCOC(=O)c1cc(OC(=O)c2cccc(Cl)c2)n(-c2ccccc2)n1 -0.0832%
Cc1ccc(C)c(N2CCN(C(=O)Cn3c(C)c4cnn(-c5ccccc5)c(=O)c4c3C)CC2)c1 40.2%
CCN(C(=O)Cn1cc(C(=O)c2ccc(F)cc2)c(=O)c2ccc(C)nc21)c1cccc(C)c1 -16%
COc1ccc(OC)c(NC(=O)CCc2c(C)nc3c(c(C)nn3C(C)(C)C)c2C)c1 5.62%
CC(C)c1ccc2occ(CC(=O)Nc3cccc(C(F)(F)F)c3)c2c1 -12.5%
Cc1cc(C)c2c(CC(=O)Nc3c(C(=O)c4ccc(F)cc4)oc4ccccc34)coc2c1 0.735%
Cc1ccc2c(c1)CC(C)N2S(=O)(=O)c1nnc(NC(=O)CC(C)C)s1 (stereo unspecified) -7.54%
CCCCOc1ccc(CNC(=O)c2cnc3sc(N4CCC(C)CC4)nn3c2=O)cc1 -4.47%
CC(C)c1nc2ccc(C(=O)NCCCN3CCN(c4ccc(F)cc4)CC3)cc2o1 2.62%
COc1ccccc1CNC(=O)CCc1c(C)nn(-c2ccc(N3CCCC3)nn2)c1C -7.81%
Cc1cc(NC(=O)CSc2nc3c([nH]c4ccccc43)c(=O)n2-c2ccc(Cl)cc2)no1 17.8%
Cc1cc(=O)n(Cc2ccccc2Cl)c2c1c(C)nn2-c1ccccc1 -4.14%
COc1ccccc1C(=O)Nc1ccc(OCc2cc(=O)n3cccc(C)c3n2)cc1 -13.4%
CCc1ccc(NC(=O)c2ccc3c(O)c(S(=O)(=O)c4ccccc4)c(=O)[nH]c3c2)cc1 2.11%
Cc1c(NC(=O)c2ccc(Cl)cc2)cc(C(C)C)c(O)c1S(=O)(=O)c1ccccc1 -5.65%
CCn1c2c(c(=O)n3ncc(C(=O)Nc4ccc(F)cc4Cl)c13)CN(Cc1ccc(OC)cc1)CC2 4.13%
CCOc1ccc(NC(=O)c2oc(=O)c3ccccc3c2-c2ccc(C)cc2)cc1 1.81%
Cc1cccc(OCc2nnc(-c3ccccc3)o2)c1 9.42%
CCN1CCN(C(=O)c2ccc3c(c2)N(Cc2ccc(F)cc2)C(=O)c2ccccc2S3(=O)=O)CC1 5.22%
O=c1oc2ccc(F)cc2cc1-c1nc(-c2cccs2)no1 5.78%
Cc1ccc(CSc2nc3ccsc3c(=O)n2CCC(C)C)cc1 5.66%
COc1ccc(CC(=O)Nc2nnc3n2CCS3)cc1 -2.75%
O=C(Nc1ccc(Br)cc1)c1ccc(Cl)c(S(=O)(=O)N2CCCCCC2)c1 -5.13%
COC(=O)CN1C(=O)C(C)(C)c2cc(S(=O)(=O)NCc3ccc(Cl)cc3)ccc21 -7.5%
CCCCN(CCCC)C1=C(C(=O)c2ccccc2)N(CC)S(=O)(=O)c2ccccc21 9.92%
Cc1ccc2scc(N3CCN(c4cccc(C(F)(F)F)c4)CC3)c(=O)c2c1 -7.6%
Cc1ccn2c(Nc3c(C)cccc3C)c(-c3ccc(Cl)s3)nc2c1 9.98%
Cc1cc(C)cc(NC(=O)C2CCN(S(=O)(=O)c3c(C)noc3/C=C/c3ccco3)CC2)c1 -3.2%
Cc1ccc(Cl)cc1NC(=O)C(NS(=O)(=O)c1ccc2c(c1)CCC(=O)N2)c1ccccc1 (stereo unspecified) 2.19%
COc1ccc(-c2cn3nc(N4CCCC(C(=O)NCCCOC(C)C)C4)sc3n2)cc1 (stereo unspecified) -14.9%
CCC(=O)N1CCc2cc(S(=O)(=O)NC(Cc3ccccc3)C(=O)NCc3cccc(OC)c3)ccc21 (stereo unspecified) 3.25%
COc1ccc2cc(CNc3ccccc3)c(=O)n(CC(=O)Nc3ccc(C(C)=O)cc3)c2c1 4.22%
COc1cccc(CNC(=O)CCn2c(=O)c3cccn3c3cccnc32)c1 7.36%
CC1=C(c2ccc(F)cc2)S(=O)(=O)NC1=NCc1ccccc1Cl -1.23%
CCc1ccc(NCc2cc3cc(OC)c(OC)cc3n(CC(=O)Nc3ccc(F)cc3)c2=O)cc1 40.2%
Cc1cccc(NC(=O)CC2C(=O)OCCN2Cc2ccccc2)c1 (stereo unspecified) -14.5%
Cc1ccc(C(=O)CSc2nc(-c3ccccc3)nc3c2CCCC3)cc1C -6.33%
Cc1ccc(NC(=O)C2CCN(C(=O)c3cnn(-c4ccccc4)c3-n3cccc3)CC2)cc1Cl 13.9%
Cc1ccc(CSc2nc3cccnc3n2Cc2ccc(C(=O)NCc3cccs3)cc2)cc1 1.25%
Cc1nc2nc(NC(=O)C(C)C)[nH]n2c(=O)c1Cc1ccccc1 -1.52%
CC(=O)c1ccc(NC(=O)CC2Sc3ccccc3NC2=O)cc1 (stereo unspecified) -12.2%
COc1ccc(-c2csc3ncnc(Nc4cccc(F)c4)c23)cc1 2.61%
Cc1cc(Oc2nc3ccccn3c(=O)c2/C=C(\C#N)c2nc3ccccc3s2)ccc1Cl -1.81%
COCC(C)NS(=O)(=O)c1ccc(N2CCCCS2(=O)=O)cc1 (stereo unspecified) 4.71%
CC(CNC(=O)Cn1c(-c2cccs2)cc2cc(Cl)ccc21)c1ccccc1 (stereo unspecified) -29.4%

outcome, inactive:
Cc1ccc(C)c(Nc2nc3c(S(=O)(=O)c4ccc(Br)cc4)nnn3c3ccsc23)c1
Cn1c(=O)c2c(-c3ccccc3Cl)n(Cc3ccc(Cl)cc3)cc2n(C)c1=O
COc1ccc(N(C(=O)c2ccc(Cl)cc2)S(=O)(=O)c2ccc(C)cc2)cc1
CCOc1ccc(CNCc2c(C(=O)O)n(Cc3ccc(OC)cc3)c3ccccc23)cc1
Cc1ccc(NS(=O)(=O)c2ccc3c(c2)NC(=O)CCS3)cc1F
COC(=O)c1ccccc1NC(=O)Cn1nc(C(F)(F)F)c2c1CCCC2
COc1cc(NC(=O)Cn2c(=O)nc(-c3ccccc3F)c3cc(Cl)ccc32)cc(OC)c1
CC1CCCCN1c1nc(-c2ccc(C(C)(C)C)cc2)nc2ccccc12 (stereo unspecified)
COc1cccc(-n2c(-c3ccc(C)cc3)cc3c2CC(C)(C)CC3=O)c1
CCC1CN(C(=O)N2CCC(C(=O)NCc3ccco3)CC2)c2cc(C)ccc2O1 (stereo unspecified)
O=C(NCC1CCN(Cc2ccccc2Cl)CC1)c1cc2ccc3cccnc3c2[nH]1
O=C(CC1Oc2ccccc2NC1=O)NCc1ccc(F)cc1 (stereo unspecified)
COc1cccc(NC(=O)c2sc3nc(C)c(C(=O)Nc4ccc(C)cc4C)c(-c4cccs4)c3c2N)c1
Cc1ccc(-c2nc(-c3cc4cccc(OCc5cccc(F)c5)c4oc3=O)no2)cc1
CCOc1ccc(-n2c(Cc3ccccc3)nnc2SCc2nc(-c3cccs3)no2)cc1
Cc1ccc2c(c1)c1c(c(=O)n(-c3ccccc3C)c(=O)n1Cc1cccc(F)c1)n2C
Cc1ccccc1C(=O)NC(=O)Nc1ccc(-n2nc(C(F)(F)F)cc2C(F)(F)F)cc1
CC(C)(C)C(=O)Nc1ccc2nc(SCc3ccccc3)sc2c1
CCCN(CCC)c1cc(C)nc2nc(-c3ccc(Cl)cc3)nn12
Cc1ccc(Nc2nc(C(N)=O)c(NC(=O)c3ccccc3Br)s2)cc1
COc1cc(Cl)c(C)cc1NC(=O)CCn1cnc2onc(-c3ccc(F)cc3)c2c1=O
